Measurements from PubChem BioAssay AID686978 (National Center for Advancing Translational Sciences (NCATS), 2013).
The whole screen tested about 420,000 compounds, of which about 64,000 (15%) were called active. The inconclusive results got no clear call from the source; some entries with a clear call stand among them for comparison. Calls come from the whole dose curve; as a rule, active = well fitted inhibition curve with a large enough effect; inconclusive = small, poorly fitted or top-dose-only effect; inactive = flat fitted curve, though single readings scatter. No potency is given beside an inconclusive call; the fits are too rough.

assay: qHTS for Inhibitors of human tyrosyl-DNA phosphodiesterase 1 (TDP1): qHTS in cells in absence of CPT; conditions: DT40 Tdp1-/- hTDP1 cells, no CPT, ATP luminescence, 48 h; activity change, negative = growth inhibition: at 46.2 µM (top of the series); note: nearly all actives have a fitted effect of over 55% in size
How it was run: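 Readout: luminescence from CellTiter-Glo after 30 min in the dark at RT. Cells: DT40 Tdp1-/- with stable hTDP1, 400/well. Exposure: compounds alone, ≥48 hr, 37 °C.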
% is set by controls: 0 for no effect and ±100 for the full control effect; potency is the fitted concentration of half-maximal effect; tags give direction and shape of the fitted curve.

SMILES | Potency | activity change, negative = growth inhibition
CCN1CCN(CCCNC(=O)Cn2c(-c3cccs3)cc3ccccc32)CC1 | inconclusive [inhibitor, single point] | 
O=C(O)CCc1nc2cc(C(F)(F)F)ccc2n(Cc2ccccc2)c1=O | inconclusive [inhibitor, single point] | 
Cc1ccc2[nH]c(C(=O)N/N=C/c3ccccc3O)c(C)c2c1 | active: 4.61 µM | 
CC(=O)Nc1ccc(S(=O)(=O)Nc2ccc(N3CCCCC3)cc2)cc1 | active: 2.91 µM | 
COc1ccc(C2CC(c3cccs3)=NN2C(=O)CCl)cc1OC (stereo unspecified) | active: 3.26 µM | 
CCOC(=O)N1CCN(CC(=O)Nc2cccc(Br)c2)CC1 | inconclusive [inhibitor, single point] | 
COc1ccc(N=Cc2cc3c(cc2O)OC(N)=C(C#N)C3c2ccccc2)cc1 (stereo unspecified) | active: 20.6 µM | 
CSc1ccccc1NC(=O)CSCc1ccc(C)cc1 | inconclusive [inhibitor, single point] | 
O=c1c(-c2cc(F)cc(F)c2)nc2cncnc2n1Cc1ccc(F)cc1 | inconclusive [inhibitor, full curve, poor fit] | 
CC(=O)c1c(Nc2ccccc2)sc(C(=O)c2ccccc2)c1C | inconclusive [inhibitor, partial curve, poor fit] | 
Cc1cccc(NC(=S)NCCCN2CCOCC2)c1 | inconclusive [inhibitor, full curve, poor fit] | 
COc1ccc(-c2noc(C3CCCN(C(=O)c4ccccc4)C3)n2)cc1 (stereo unspecified) | inconclusive [inhibitor, single point] | 
CC(=O)c1ccc(N2CCN(C(=O)COc3ccccc3F)CC2)c(F)c1 | active: 23.1 µM | 
CCCCN(C(=O)C1CCN(C(=O)c2ccccc2C)CC1)c1c(N)n(CCC)c(=O)[nH]c1=O | inconclusive [inhibitor, full curve, poor fit] | 
CCCCn1c(SCc2ccccn2)nc2c1c(=O)n(C)c(=O)n2C | inconclusive [inhibitor, partial curve] | 
CCN1CCN(S(=O)(=O)c2ccc(Cl)c(C(=O)N(C)Cc3ccc(Cl)cc3Cl)c2)CC1 | active: 23.1 µM | 
CC(=O)c1ccc(Nc2nc(C(N)c3ccccc3Cl)cs2)cc1 (stereo unspecified) | active: 11.6 µM | 
CCOc1ccc2c(c1)c(N=Nc1cccc(C(=O)O)c1)c(O)n2C | inactive | 
O=C(Nc1n[nH]c(=S)s1)c1ccco1 | inactive | 
COC(=O)Cn1c(CN(Cc2ccccc2)Cc2ccccc2)nc2c1c(=O)[nH]c(=O)n2C | inconclusive [inhibitor, partial curve] | 
CCN1CCN(c2ccc(S(=O)(=O)N3CCOCC3)cc2NC(=O)C2CCC(C(C)(C)C)CC2)CC1 (stereo unspecified) | inconclusive [inhibitor, single point] | 
COc1ccc(/C=C2/NC(=O)N(Cc3ccccc3F)C2=O)cc1OC | inconclusive [inhibitor, single point] | 
Nc1nonc1-c1nc2ccccc2n1Cc1ccc(F)cc1Cl | active: 20.6 µM | 

SMILES | Potency | activity change, negative = growth inhibition
CCCC1NC(=S)N(C2CCCCC2)C1=O (stereo unspecified) |  | inconclusive: -30.7% [inhibitor]
CCC(c1nnnn1C1CCCC1)N1CCC(C(N)=O)CC1 (stereo unspecified) | inactive | 
O=C(c1ccc2c(c1)OCCO2)N(Cc1cccnc1)c1nc2ccc(F)cc2s1 | inconclusive [inhibitor, single point] | 
CCOc1ccc(CNC(=O)c2cc3c(=O)n(C)c4ccccc4c3s2)cc1 | active: 2.59 µM | 
CCOC(=O)c1cc[nH]c1CC(=O)NC | inactive | 
Cc1ccc(C(=O)N2CCCC(C(F)(F)F)C2)cc1S(=O)(=O)N1CCOCC1 (stereo unspecified) | inactive | 
CCCCN(C)S(=O)(=O)c1cc2c(cc1Br)CCN2C(=O)C1CC1 | active: 3.66 µM | 
Cc1c2cnn(CC(=O)NC3CCCC3)c(=O)c2c(C)n1Cc1ccccc1 |  | inconclusive: -32.3% [inhibitor]
COc1ccc(N/C=C/C(=O)c2ccc(OC)c(OC)c2)cc1 | inconclusive [inhibitor, partial curve] | 
O=C(CSCc1ccc(Cl)cc1)N/N=C/c1ccc(OCC(=O)Nc2ccccc2)cc1 | inconclusive [inhibitor, single point] | 
CCN(CC)CCCNC(=O)c1cc(-c2ccc(OC)c(OC)c2)on1 | inactive | 
C=C1CCC(C)C(C)(CCC2=CCOC2=O)C/C=C\C=C/1C(=O)O (stereo unspecified) | inactive | 
COc1ccc(-c2nc3cc(NC(=O)c4ccc5c(c4)OCO5)ccc3o2)cc1 | inconclusive [inhibitor, partial curve, poor fit] | 
CC1CN(C(=O)N2CCC(C(=O)NC3CCCCCC3)CC2)c2cc(Cl)ccc2O1 (stereo unspecified) | active: 18.4 µM | 
CCOC(=O)Cc1csc(NC(=O)COc2c(C)cccc2C)n1 | inconclusive [inhibitor, single point] | 
Oc1ccccc1C=NCCN1CCN(CCN=Cc2ccccc2O)C1c1ccccc1O (stereo unspecified) | inconclusive [inhibitor, single point] | 
COc1ccccc1N(CC(=O)Nc1cc(C)on1)S(=O)(=O)c1cccc(C(F)(F)F)c1 | inconclusive [inhibitor, single point] | 
COc1ccc(-c2ccnc3c(-c4ccc(F)cc4)c(C)nn23)cc1OC | inconclusive [inhibitor, single point] | 
Cc1ccc(NC(=O)C2CCCN2S(=O)(=O)c2cccc3cccnc23)cc1 (stereo unspecified) | inconclusive [inhibitor, single point] | 
O=C(CSC(=S)N1CCOCC1)c1ccccc1 | inconclusive [inhibitor, single point] | 
O=C(NCCN1CCC(n2c(=O)[nH]c3ccccc32)CC1)c1cccc2c1-c1ccccc1C2=O | active: 20.6 µM | 
Cc1cccc(-c2nc(CS(=O)CC(=O)NC3CCCCC3)c(C)o2)c1 (stereo unspecified) | inactive | 
Cc1ccc(C(=O)CSc2nccn2-c2ccccc2)cc1 | inconclusive [inhibitor, single point] | 
